According to the supplement of paper PMC10600219:
Where “and” joins values, the source holds several entries; their conditions need not be identical. Identical values can stand only once. Counter-ions that a name gives are not always drawn. ± gives the standard deviation of the averaged measurements. The full ranking holds about 2,800 compounds; the median of “cell viability relative to vehicle” is about 0.98, and the lowest 2% start at about 0.45. The list shows a part of the results.

The compounds below were run on NCI-H2228 alectinib-DTP (assay: cell viability relative to vehicle (fraction of vehicle); NCI-H2228 is an ALK-positive lung cancer line and DTP means drug-tolerant persister; higher = less growth inhibition). Settings: 100 nM; treatment time 6 days.
In short: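 Drug-tolerant persister NCI-H2228 cells, produced by 13 days in 1000 nM of a targeted drug, and their parental counterparts were seeded into 384-well plates and, the following day, given the 3114-agent TargetMol anti-cancer compound library at 100 nM or DMSO vehicle. After 6 days, the CellTiter-Glo 3D Cell Viability Assay was used to read ATP. Each entry reports viability compared with vehicle-treated cells.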

SMILES	cell viability
c1ccc(-c2nn3c(c2-c2ccnc4cc(OCCN5CCOCC5)ccc24)CCC3)nc1	0.978
CC(C)NNC(=O)c1ccncc1 [Iproniazid Phosphate]	0.934
O=C1S/C(=C\c2ccc(OCc3cccc(B(O)O)c3)cc2)C(=O)N1Cc1ccc(F)cc1	0.815
Cc1ccc(Sc2cncc3sc(C(N)=O)cc23)cc1	1.04
CSCC[C@H](NC(=O)[C@H](Cc1c[nH]c2ccccc12)NC(=O)CCNC(=O)OC(C)(C)C)C(=O)N[C@@H](CC(=O)O)C(=O)N[C@@H](Cc1ccccc1)C(N)=O [Pentagastrin]	0.855
Cc1c(C(=O)Nc2ccc(N3C[C@@H](C)O[C@@H](C)C3)nc2)cccc1-c1ccc(OC(F)(F)F)cc1	0.993
O=C(NCCN1CCOCC1)Nc1ccc(C(=O)/C=C/c2cccc(N3CCOCC3)n2)cc1	1.06
Nc1cc(C(F)(F)F)c(-c2cc(N3CCOCC3)nc(N3CCOCC3)n2)cn1 [Buparlisib]	0.766
CCOC(N)=O [Urethane]	0.983
Nc1ncccc1-c1nc2ccc(-c3ccccc3)nc2n1-c1ccc(C2(N)CCC2)cc1 [Miransertib]	0.777
O=c1cc(N2CCOCC2)oc2c(-c3ccccc3)cccc12	1.15
O=C1c2cccc(O)c2C(=O)c2c(O)cccc21 [Antrapurol]	0.878
COc1ccc2cc1Oc1ccc(cc1)C[C@H]1c3cc(c(OC)cc3CCN1C)Oc1c(O)c(OC)cc3c1[C@H](C2)N(C)CC3 [Fangchinoline]	0.967 ± 0.087
CN1c2ccccc2C(=O)N2CCc3c([nH]c4ccccc34)C21 (stereo in doubt) [Evodiamine]	0.955
OC(CCN1CCCCC1)(c1ccccc1)c1ccccc1 [Loxeen]	1.04
COc1cc(Nc2ncc3c(n2)-c2ccc(Cl)cc2C(c2c(F)cccc2OC)=NC3)ccc1C(=O)O [Alisertib]	0.721
CCCCC(=O)N(Cc1ccc(-c2ccccc2-c2nnn[nH]2)cc1)[C@H](C(=O)O)C(C)C [Valsartan]	1.04
Cc1ccc(Nc2nccc(N(C)c3ccc4c(C)n(C)nc4c3)n2)cc1S(N)(=O)=O [Pazopanib]	0.894
CCc1ccc(/C=C2/SC(=S)NC2=O)cc1	0.947
Cc1cc(Nc2ncnc3ccc(NC4=NC(C)(C)CO4)cc23)ccc1Oc1ccn2ncnc2c1 [Irbinitinib]	0.906
OCC(CO)N[C@H]1C[C@](O)(CO)[C@@H](O)[C@H](O)[C@H]1O [Voglibose]	0.985
CC(C)=CCC[C@](C)(O[C@@H]1O[C@H](CO)[C@@H](O)[C@H](O)[C@H]1O)[C@H]1CC[C@]2(C)[C@@H]1[C@H](O)C[C@@H]1[C@@]3(C)CC[C@H](O[C@@H]4O[C@H](CO)[C@@H](O)[C@H](O)[C@H]4O[C@@H]4O[C@H](CO)[C@@H](O)[C@H](O)[C@H]4O)C(C)(C)[C@@H]3CC[C@]12C [Ginsenoside Rd]	0.966
C=CCNc1ncnc2ccc(Br)cc12	1.08
COC(=O)/C=C/C(=O)OC [Dimethyl fumarate]	1.12
CC(C)=CCC[C@](C)(O)[C@H]1CC[C@]2(C)[C@@H]1[C@H](O)C[C@@H]1[C@@]3(C)CC[C@H](O)C(C)(C)[C@@H]3[C@@H](O[C@@H]3O[C@H](CO)[C@@H](O)[C@H](O)[C@H]3O[C@@H]3O[C@@H](C)[C@H](O)[C@@H](O)[C@H]3O)C[C@]12C [Ginsenoside Rg2]	0.994
O=C(NNc1nc2cc(F)ccc2n2cccc12)c1cnccn1	0.639

SMILES	cell viability
CC(C)c1cc(C(C)C)c(CC(=O)NS(=O)(=O)Oc2c(C(C)C)cccc2C(C)C)c(C(C)C)c1 [Avasimibe]	0.857
O=C(NC(Cc1cc(=O)[nH]c2ccccc12)C(=O)O)c1ccc(Cl)cc1 (stereo unspecified) [Rebamipide]	0.928
CCN1C(=O)C=CC1=O [N-Ethylmaleimide]	1.05
COc1ccc2[nH]cc(/C=C3\C(=O)Nc4ccc(NC(=O)CCN5CCCCC5)cc43)c2c1	0.999
O=C1c2c(O)ccc(O)c2C(=O)c2c(NCCNCCO)ccc(NCCNCCO)c21 [Mitoxantrone]	0.386
CCOC(=O)c1ccc(NC2CCCCC2)c(N)c1 [Ferrostatin-1]	0.967
CC/C(=C(/c1ccc(O)cc1)c1ccc(OCCNC)cc1)c1ccccc1 [Endoxifen E-isomer hydrochloride]	1.12
CCCCc1ncc(/C=C(\Cc2cccs2)C(=O)O)n1Cc1ccc(C(=O)O)cc1 [Eprosartan Mesylate]	1.08
CCCCCCCCOc1ccccc1C(=O)Nc1ccc(C(=O)OCC[N+](C)(CC)CC)cc1 [Otilonium bromide]	0.903
CN1CCCN(C(=O)c2cccc(-c3ccc(/C=C4/C(=O)Nc5ccc(Cl)cc54)o3)c2)CC1	0.984
CNc1ccc([N+](=O)[O-])c(Nc2ccc3[nH]ncc3c2)n1	0.991
O=C(O)CCC(=O)c1ccc(-c2ccccc2)cc1 [Fenbufen]	0.95
CC(CNC(=O)c1cccnc1)NC(=O)c1cccnc1 (stereo unspecified) [Nicaraven]	1.07
COc1ccc(/C=C/C(=O)NO)c(-c2ccc(-c3ccccc3)cc2)c1	1.03
CN(c1ncccc1CNc1nc(Nc2ccc3c(c2)CC(=O)N3)ncc1C(F)(F)F)S(C)(=O)=O	0.934 and 1.16
CCOC(=O)c1cc(O)c(O)c(O)c1 [Ethyl gallate]	0.912
CN(C)CCc1c[nH]c2ccc(CS(=O)(=O)N3CCCC3)cc12 [Almotriptan Malate]	0.96
Cc1cccc(N(C)C(=S)Oc2ccc3ccccc3c2)c1 [Tolnaftate]	1.23
CCCCC/C=C\C/C=C\CCCCCCCC(=O)O [Linoleic acid]	0.87
N[C@@H](COP(=O)(O)O)C(=O)O [Phosphoserine]	0.962
CN1CCN(c2ccc3nc(-c4c(N)c5c(F)cccc5[nH]c4=O)[nH]c3c2)CC1 [Dovitinib]	0.832
COc1cc2c(cc1OC)CN(C(=O)[C@@H](NCc1ccncc1)C(C)(C)C)CC2	1.05
O=c1[nH]c(=O)n([C@H]2C[C@H](O)[C@@H](CO)O2)cc1I [Dendrid]	0.937
Cc1cc(=O)c(C(=O)N[C@@H](C(=O)N[C@@H]2C(=O)N3C(C(=O)O)=C(CSc4nnnn4C)CS[C@H]23)c2ccc(O)cc2)c[nH]1 [Cefpiramide acid]	1.16
CC(=O)O[C@@H]1C[C@H](O)[C@@]23CO[C@@H](O)[C@]1(C)[C@@H]2C[C@@H](O)[C@]1(C)[C@@H]3C(=O)[C@H](OC(C)=O)[C@@]2(C)[C@H](c3ccoc3)C[C@H]3O[C@]321 [Toosendanin]	0.408
Nc1cc(C(F)(F)F)c(-c2nc(N3CCOCC3)nc(N3CCOCC3)n2)cn1	0.774

SMILES	cell viability
COc1cc2c(NC3CCN(CC4CCCCC4)CC3)nc(N3CCCN(C(C)C)CC3)nc2cc1OCCCN1CCCCC1	1.05
COc1ccc(-c2ccc3cc(C(=O)O)ccc3c2)cc1C12CC3CC(CC(C3)C1)C2 [Adapalene]	0.983
NNC(=O)c1ccncc1 [Isoniazid]	1.03
COc1ccc(/C=C/c2cc(O)cc(O[C@@H]3O[C@H](CO)[C@@H](O)[C@H](O)[C@H]3O)c2)cc1O [Rhaponiticin]	1.1
O=C(Nc1ncc(SCCN2CCCC2)s1)[C@]1(c2ccc(S(=O)(=O)C3CC3)cc2)C[C@H]1C1CCCCC1	0.931
O=C(O)CCCN1CCC(O[C@@H](c2ccc(Cl)cc2)c2ccccn2)CC1 [Bepotastine Besilate]	1.02
Cc1nnc(NC(=O)c2nc(S(=O)(=O)Cc3ccc(F)cc3)ncc2Cl)s1	1.02
Cc1ccc(S(=O)(=O)OCC(=O)Nc2ccc(C(=O)O)c(O)c2)cc1	0.898
C[C@H]1C[C@H]2[C@@H]3CCC4=CC(=O)C=C[C@]4(C)[C@H]3C(=O)C[C@]2(C)[C@@]1(O)C(=O)CO [Meprednisone]	1.12
COc1ccc(-c2cc(=O)c3c(OC)c(OC)c(OC)c(OC)c3o2)cc1OC [Nobiletin]	0.921
Cc1ccc(C(=O)Nc2cccc(C(F)(F)F)c2)cc1Nc1nc(-c2cccnc2)nc2c1cnn2C	0.974
O=C(NCc1ccc(S(=O)(=O)c2cc(F)cc(F)c2)cc1)c1ccc2nccn2c1	0.34
O=c1cc[nH]c(=O)[nH]1 [Uracil]	1.16
CC1(C)C=Cc2c(ccc3c2OC[C@@H](c2ccc(O)cc2O)C3)O1 [Glabridin]	1.02
CCc1nc2c(C)cc(N3CCN(CC(=O)N4CC(O)C4)CC3)cn2c1N(C)c1nc(-c2ccc(F)cc2)c(C#N)s1	1.02
CC(C)=CCc1cc2c(cc1O)O[C@H](c1ccc(O)cc1)CC2=O [Bavachin]	1.01
N#Cc1c(Oc2ccc(F)c(NC(=O)Cc3cccc(C(F)(F)F)c3)c2)ccc2nc(NC(=O)C3CC3)sc12	1.06
O=C1N=c2ccccc2=C1c1c(O)[nH]c2ccccc12 [Isoindigotin]	0.934
O=C(O)c1ccc(C=C2SC(=S)N(c3cccc(C(F)(F)F)c3)C2=O)cc1	1.03
COc1ccc(-c2cc(=O)c3c(OC)c(OC)c(OC)c(OC)c3o2)cc1 [Tangeretin]	0.993
C/C(=N\NC(=O)c1cccc(S(=O)(=O)N2CCN(C)CC2)c1)c1cc(Cl)ccc1O [Seclidemstat]	0.783
OC[C@H]1O[C@@H](Oc2cc(O)cc(/C=C/c3ccc(O[C@@H]4O[C@H](CO)[C@@H](O)[C@H](O)[C@H]4O)cc3O)c2)[C@H](O)[C@@H](O)[C@@H]1O [Mulberroside A]	1.1
CN1C(C(=O)Nc2ccccn2)=C(O)c2sc(Cl)cc2S1(=O)=O [Lornoxicam]	1.03
NC[C@H]1OB(O)c2c(OCCCO)cccc21 [Epetraborole hydrochloride]	1.11
